The values that follow come from article PMC6018503.

Sequences of proteins named here, by UniProt entry; tags and fusion partners are left off.
UniProt Q93ZX1: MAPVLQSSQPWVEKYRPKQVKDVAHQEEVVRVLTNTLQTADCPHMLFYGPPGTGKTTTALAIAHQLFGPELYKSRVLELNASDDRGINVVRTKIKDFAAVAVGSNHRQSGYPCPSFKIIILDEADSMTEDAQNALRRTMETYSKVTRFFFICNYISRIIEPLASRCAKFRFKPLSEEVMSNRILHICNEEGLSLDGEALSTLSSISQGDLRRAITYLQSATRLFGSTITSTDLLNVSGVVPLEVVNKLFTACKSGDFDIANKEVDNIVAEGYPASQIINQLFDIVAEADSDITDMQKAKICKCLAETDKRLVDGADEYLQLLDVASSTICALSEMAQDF
UniProt Q9FXM3: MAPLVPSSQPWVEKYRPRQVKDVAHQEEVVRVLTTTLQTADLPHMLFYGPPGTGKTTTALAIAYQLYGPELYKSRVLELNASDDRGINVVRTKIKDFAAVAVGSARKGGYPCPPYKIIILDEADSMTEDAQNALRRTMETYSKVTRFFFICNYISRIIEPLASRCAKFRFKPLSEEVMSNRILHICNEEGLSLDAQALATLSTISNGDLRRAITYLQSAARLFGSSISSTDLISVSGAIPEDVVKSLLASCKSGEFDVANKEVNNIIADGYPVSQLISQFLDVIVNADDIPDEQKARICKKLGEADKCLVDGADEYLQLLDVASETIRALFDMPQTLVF

These are yes or no findings as the source states them, for the method shown. For some assays here: In cells and extracts the contact can be indirect. Some results given as binding are weak or reduced against the parent protein; the word gives no strength.

In experiment [1] the target is T1, OsRFC4 (rice (Oryza sativa)) (UniProt Q7XRX1).
T1 sequence: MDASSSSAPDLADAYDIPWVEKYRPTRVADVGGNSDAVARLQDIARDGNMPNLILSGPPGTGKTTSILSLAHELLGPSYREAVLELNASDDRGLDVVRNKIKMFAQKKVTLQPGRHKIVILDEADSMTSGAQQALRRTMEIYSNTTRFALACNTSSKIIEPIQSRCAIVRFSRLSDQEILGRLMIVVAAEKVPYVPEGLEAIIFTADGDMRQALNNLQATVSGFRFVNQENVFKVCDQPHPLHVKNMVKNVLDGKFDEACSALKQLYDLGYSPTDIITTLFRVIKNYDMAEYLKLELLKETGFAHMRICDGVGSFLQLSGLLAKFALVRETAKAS
Briefly: two-hybrid; yeast two-hybrid; full-length ORFs in pGADT7 (AD) and pGBKT7 (BD); co-transformed strains spotted on SD-L-T and SD-L-T-H-A plates; empty AD or BD plasmids as negative controls.

The target in experiment [2] is T2, AtRFC2 (Arabidopsis thaliana) (UniProt Q9CAM7).
T2 sequence: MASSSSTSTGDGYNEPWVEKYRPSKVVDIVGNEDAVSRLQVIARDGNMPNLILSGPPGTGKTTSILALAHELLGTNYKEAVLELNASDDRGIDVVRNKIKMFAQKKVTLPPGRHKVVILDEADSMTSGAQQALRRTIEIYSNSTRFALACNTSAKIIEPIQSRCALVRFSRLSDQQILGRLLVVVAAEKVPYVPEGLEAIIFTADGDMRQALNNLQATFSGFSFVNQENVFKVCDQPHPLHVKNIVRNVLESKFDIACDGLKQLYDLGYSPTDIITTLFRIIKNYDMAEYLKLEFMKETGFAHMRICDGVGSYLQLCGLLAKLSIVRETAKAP
Description: split reporter; BiFC; YFP^N (aa 1-155) and YFP^C (aa 156-239) fusions (pCAMBIA-SPYNE, pCAMBIA-SPYCE) co-expressed in tobacco (Nicotiana benthamiana) leaf epidermal cells through Agrobacterium GV3101; confocal microscopy of YFP; only the two named fusions.

In experiment [3] the target is AtRFC4 (Arabidopsis thaliana) (UniProt Q93ZX1). The experiment is described as above.
For experiment [4], the target named is T3, OsRFC1 (rice (Oryza sativa)) (UniProt Q2R2B4).
T3 sequence: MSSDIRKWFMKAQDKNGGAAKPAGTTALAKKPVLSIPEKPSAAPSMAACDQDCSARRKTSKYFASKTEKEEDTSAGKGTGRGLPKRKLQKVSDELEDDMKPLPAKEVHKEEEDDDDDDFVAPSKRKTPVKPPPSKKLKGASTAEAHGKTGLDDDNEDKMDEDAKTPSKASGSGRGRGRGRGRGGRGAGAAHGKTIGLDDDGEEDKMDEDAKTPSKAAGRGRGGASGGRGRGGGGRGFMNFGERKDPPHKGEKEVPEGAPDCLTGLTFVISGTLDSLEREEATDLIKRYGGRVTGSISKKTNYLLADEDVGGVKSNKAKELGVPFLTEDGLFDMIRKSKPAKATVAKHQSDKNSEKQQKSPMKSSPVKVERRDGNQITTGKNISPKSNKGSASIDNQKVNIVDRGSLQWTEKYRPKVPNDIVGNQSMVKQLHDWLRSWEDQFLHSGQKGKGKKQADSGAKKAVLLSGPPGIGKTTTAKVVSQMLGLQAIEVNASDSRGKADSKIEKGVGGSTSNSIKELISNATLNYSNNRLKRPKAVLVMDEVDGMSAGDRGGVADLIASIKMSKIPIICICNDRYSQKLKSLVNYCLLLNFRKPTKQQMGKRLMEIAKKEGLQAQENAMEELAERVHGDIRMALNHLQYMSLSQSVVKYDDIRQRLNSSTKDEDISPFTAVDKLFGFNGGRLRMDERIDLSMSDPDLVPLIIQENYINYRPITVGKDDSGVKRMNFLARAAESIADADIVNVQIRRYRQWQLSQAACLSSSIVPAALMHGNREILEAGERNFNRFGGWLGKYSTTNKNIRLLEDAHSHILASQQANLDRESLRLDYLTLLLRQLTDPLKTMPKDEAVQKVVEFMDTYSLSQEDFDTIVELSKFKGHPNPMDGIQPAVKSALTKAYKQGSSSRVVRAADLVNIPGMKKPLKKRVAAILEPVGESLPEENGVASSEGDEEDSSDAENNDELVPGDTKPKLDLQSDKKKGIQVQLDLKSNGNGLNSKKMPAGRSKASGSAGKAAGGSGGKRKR
The description is as above.

Experiment [5] deals with OsRFC2 (rice (Oryza sativa)) (UniProt Q9FXM3). Described as above.
Experiment [6] addresses T4, OsRFC3 (rice (Oryza sativa)) (UniProt Q6YZ54).
T4 sequence: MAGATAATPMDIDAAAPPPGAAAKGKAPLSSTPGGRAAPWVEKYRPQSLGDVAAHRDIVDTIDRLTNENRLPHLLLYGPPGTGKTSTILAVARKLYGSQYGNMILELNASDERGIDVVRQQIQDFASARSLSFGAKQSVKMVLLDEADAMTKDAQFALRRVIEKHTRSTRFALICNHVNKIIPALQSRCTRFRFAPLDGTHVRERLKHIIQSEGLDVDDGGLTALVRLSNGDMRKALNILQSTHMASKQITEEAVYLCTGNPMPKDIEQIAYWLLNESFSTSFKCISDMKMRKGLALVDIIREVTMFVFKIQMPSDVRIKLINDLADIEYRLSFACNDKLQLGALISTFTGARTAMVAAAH
The description is as above.

Experiment [7] deals with T1, OsRFC4 (rice (Oryza sativa)). The description is as above.
The target of experiment [8] is T5, OsRFC5 (rice (Oryza sativa)) (UniProt Q852K3).
T5 sequence: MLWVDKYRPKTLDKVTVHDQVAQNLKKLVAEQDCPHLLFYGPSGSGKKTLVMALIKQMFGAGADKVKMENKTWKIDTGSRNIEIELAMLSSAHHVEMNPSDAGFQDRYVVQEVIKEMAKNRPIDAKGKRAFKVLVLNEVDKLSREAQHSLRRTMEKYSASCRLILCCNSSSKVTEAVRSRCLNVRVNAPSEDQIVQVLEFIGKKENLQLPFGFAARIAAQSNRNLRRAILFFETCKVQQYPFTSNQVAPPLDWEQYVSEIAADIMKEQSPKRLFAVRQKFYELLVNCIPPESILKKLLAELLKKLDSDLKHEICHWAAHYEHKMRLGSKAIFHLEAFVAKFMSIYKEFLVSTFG
The description is as above.

Experiment [9] has as its target AtRFC4 (Arabidopsis thaliana) (UniProt Q93ZX1). Description: two-hybrid; yeast two-hybrid; full-length ORFs in pGADT7 (AD) and pGBKT7 (BD); co-transformed strains spotted on SD-L-T and SD-L-T-H-A plates; empty AD or BD plasmids as negative controls.

B1: OsRFC3 (protein, UniProt Q6YZ54 1-361)
chain: MAGATAATPMDIDAAAPPPGAAAKGKAPLSSTPGGRAAPWVEKYRPQSLGDVAAHRDIVDTIDRLTNENRLPHLLLYGPPGTGKTSTILAVARKLYGSQYGNMILELNASDERGIDVVRQQIQDFASARSLSFGAKQSVKMVLLDEADAMTKDAQFALRRVIEKHTRSTRFALICNHVNKIIPALQSRCTRFRFAPLDGTHVRERLKHIIQSEGLDVDDGGLTALVRLSNGDMRKALNILQSTHMASKQITEEAVYLCTGNPMPKDIEQIAYWLLNESFSTSFKCISDMKMRKGLALVDIIREVTMFVFKIQMPSDVRIKLINDLADIEYRLSFACNDKLQLGALISTFTGARTAMVAAAH
With B1, the binding result in [1], in [2], in [3], in [4] and in experiment [5] was “binds” throughout.

B2: OsRFC1 Δ640–1021 (domain or fragment, UniProt Q2R2B4 1-639)
chain: MSSDIRKWFMKAQDKNGGAAKPAGTTALAKKPVLSIPEKPSAAPSMAACDQDCSARRKTSKYFASKTEKEEDTSAGKGTGRGLPKRKLQKVSDELEDDMKPLPAKEVHKEEEDDDDDDFVAPSKRKTPVKPPPSKKLKGASTAEAHGKTGLDDDNEDKMDEDAKTPSKASGSGRGRGRGRGRGGRGAGAAHGKTIGLDDDGEEDKMDEDAKTPSKAAGRGRGGASGGRGRGGGGRGFMNFGERKDPPHKGEKEVPEGAPDCLTGLTFVISGTLDSLEREEATDLIKRYGGRVTGSISKKTNYLLADEDVGGVKSNKAKELGVPFLTEDGLFDMIRKSKPAKATVAKHQSDKNSEKQQKSPMKSSPVKVERRDGNQITTGKNISPKSNKGSASIDNQKVNIVDRGSLQWTEKYRPKVPNDIVGNQSMVKQLHDWLRSWEDQFLHSGQKGKGKKQADSGAKKAVLLSGPPGIGKTTTAKVVSQMLGLQAIEVNASDSRGKADSKIEKGVGGSTSNSIKELISNATLNYSNNRLKRPKAVLVMDEVDGMSAGDRGGVADLIASIKMSKIPIICICNDRYSQKLKSLVNYCLLLNFRKPTKQQMGKRLMEIAKKEGLQAQENAMEELAERVHGDIRMALNHLQ
On to B2, for which the binding entry in experiment [5], in [6], in experiment [7] and in [8] was “no binding” in each case.

B3: AtRFC2 (protein, UniProt Q9CAM7 1-333)
chain: MASSSSTSTGDGYNEPWVEKYRPSKVVDIVGNEDAVSRLQVIARDGNMPNLILSGPPGTGKTTSILALAHELLGTNYKEAVLELNASDDRGIDVVRNKIKMFAQKKVTLPPGRHKVVILDEADSMTSGAQQALRRTIEIYSNSTRFALACNTSAKIIEPIQSRCALVRFSRLSDQQILGRLLVVVAAEKVPYVPEGLEAIIFTADGDMRQALNNLQATFSGFSFVNQENVFKVCDQPHPLHVKNIVRNVLESKFDIACDGLKQLYDLGYSPTDIITTLFRIIKNYDMAEYLKLEFMKETGFAHMRICDGVGSYLQLCGLLAKLSIVRETAKAP
In the case of B3, the binding result in experiment [9] and in experiment [3] was “binds” in each case.
